Measurements from the antibiotic and cytotoxicity screens of Wong et al. (2023).
Some of the results follow.

Tested on: S. aureus RN4220
Experiment: growth inhibition call (relative growth <= 0.2)
Details: 50 µM

Growth inhibition call, inactive:
Cc1noc(C)c1NC(=O)N(C)C[C@@H]1OCCCC[C@H](C)Oc2ccc(NC(=O)c3ccccc3)cc2C(=O)N([C@H](C)CO)C[C@@H]1C
CNC[C@@H]1OCCCC[C@H](C)Oc2ccc(NC(=O)Nc3cccc4ccccc34)cc2C(=O)N([C@@H](C)CO)C[C@@H]1C
O=C([O-])Cc1ccccc1Nc1c(Cl)cccc1Cl.[Na+]
C[C@H](CO)N1C[C@H](C)[C@H](CN(C)Cc2ccc(Cl)c(Cl)c2)Oc2c(NC(=O)Nc3ccccc3)cccc2C1=O
CN(C)c1cnccn1.O=S(=O)(O)O
COc1cccc(S(=O)(=O)N(C)C[C@H]2Oc3cc(C4=CCCC4)ccc3S(=O)(=O)N([C@H](C)CO)C[C@H]2C)c1
CC[C@@H](C)NC(=O)C1CCNCC1
O=C1Nc2ccc(I)cc2C1=Cc1cc(Br)c(O)c(Br)c1
C[C@@H]1CN([C@@H](C)CO)C(=O)c2cc(NC(=O)Nc3ccc(C(F)(F)F)cc3)ccc2O[C@@H](C)CCCCO[C@@H]1CN(C)C(=O)CCCN(C)C
C[C@@H]1CCCCO[C@@H](CN(C)C(=O)C2CCCCC2)[C@H](C)CN([C@H](C)CO)C(=O)c2cc(NC(=O)Cc3ccccc3)ccc2O1
C[C@@H]1CN([C@H](C)CO)C(=O)c2cc(NC(=O)c3ccncc3)ccc2O[C@@H]1CN(C)S(=O)(=O)c1ccc(F)cc1
CC(C)CC#Cc1ccc2c(c1)O[C@H](CN(C)C(=O)Cc1cccnc1)[C@H](C)CN([C@@H](C)CO)S2(=O)=O
Cc1noc(C)c1NC(=O)Nc1ccc2c(c1)C(=O)N([C@@H](C)CO)C[C@@H](C)[C@@H](CN(C)S(=O)(=O)c1cccs1)OCCCC[C@H](C)O2
O=C(CCCCCNc1nc(=S)[nH]c2ccccc12)N1CCC(O)(c2cccc(C(F)(F)F)c2)CC1
COc1ccccc1C#Cc1cnc2c(c1)C(=O)N([C@@H](C)CO)C[C@H](C)[C@H](CN(C)S(=O)(=O)c1cn(C)cn1)O2
Cc1ccnc2c1NC(=O)c1cccnc1N2C1CC1
COc1ccc(NC(=O)Nc2ccc3c(c2)C(=O)N([C@@H](C)CO)C[C@@H](C)[C@@H](CN(C)Cc2ccc4c(c2)OCO4)OCCCC[C@H](C)O3)cc1
C[C@H](CO)N1C[C@H](C)[C@H](CN(C)C(=O)c2ccncc2)OCCCC[C@H](C)Oc2ccc(NS(=O)(=O)c3cn(C)cn3)cc2C1=O
C[C@@H]1CN([C@@H](C)CO)C(=O)c2cc(NC(=O)C3CCCCC3)ccc2O[C@@H]1CN(C)Cc1ccc(-c2ccccc2)cc1
C[C@H]1CN([C@@H](C)CO)C(=O)CCCn2nncc2CO[C@H]1CN(C)C(=O)Nc1ccc(C(C)(C)C)cc1
CNC[C@@H]1OCCCC[C@H](C)Oc2ccc(NS(=O)(=O)c3c(C)noc3C)cc2C(=O)N([C@@H](C)CO)C[C@@H]1C
C[C@@H]1CN([C@H](C)CO)C(=O)Cc2cc(NS(=O)(=O)c3cn(C)cn3)ccc2O[C@@H]1CN(C)CC1CC1
N#CCN(CC#N)C(=O)c1ccco1
C[C@@H]1CN([C@H](C)CO)C(=O)Cc2cc(NS(=O)(=O)c3ccccc3)ccc2O[C@@H]1CN(C)S(=O)(=O)c1cccs1
C[C@@H]1CCCCO[C@@H](CN(C)S(=O)(=O)c2cn(C)cn2)[C@H](C)CN([C@@H](C)CO)C(=O)c2cc(NC(=O)Nc3cccc4ccccc34)ccc2O1
CN1CCN(C(=O)C[C@@H]2CC[C@@H]3[C@@H](COc4ccc(NC(=O)C5CCOCC5)cc4C(=O)N3C)O2)CC1
C[C@@H]1CN([C@H](C)CO)C(=O)c2cccc(NS(=O)(=O)c3ccccc3)c2O[C@H]1CN(C)Cc1ccncc1
COc1ccc(NC(=O)N(C)C[C@H]2Oc3c(NC(=O)Nc4ccc(C(F)(F)F)cc4)cccc3C(=O)N([C@@H](C)CO)C[C@H]2C)cc1
C[C@H](CO)N1C[C@H](C)[C@@H](CN(C)S(=O)(=O)c2cn(C)cn2)Oc2ccc(NC(=O)Cc3cn(C)c4ccccc34)cc2CC1=O
CCCC#Cc1cnc2c(c1)C(=O)N([C@H](C)CO)C[C@@H](C)[C@@H](CN(C)S(=O)(=O)c1cccc(OC)c1)O2
Cc1noc(C)c1NC(=O)Nc1ccc2c(c1)C(=O)N([C@H](C)CO)C[C@H](C)[C@@H](CN(C)C(=O)Nc1ccc(C(F)(F)F)cc1)OCCCC[C@@H](C)O2
CCNC1CN(CCCOC)S(=O)(=O)c2sc(S(N)(=O)=O)cc21 (stereo not given)
C[C@@H]1CN([C@@H](C)CO)C(=O)CCCn2cc(nn2)CO[C@@H]1CN(C)C(=O)Nc1cccc(Oc2ccccn2)c1
COc1ccc(S(=O)(=O)N(C)C[C@@H]2OCCCC[C@H](C)Oc3ccc(NS(=O)(=O)c4cn(C)cn4)cc3C(=O)N([C@@H](C)CO)C[C@H]2C)cc1
CC(C)NC(=O)N(C)C[C@H]1Oc2ccc(NC(=O)NC3CCCCC3)cc2CC(=O)N([C@H](C)CO)C[C@@H]1C
CCCN(C)C[C@H]1OCCCC[C@@H](C)Oc2ccc(NC(=O)CCC(F)(F)F)cc2C(=O)N([C@@H](C)CO)C[C@H]1C
O=c1oc2cc(O)ccc2s1
C[C@@H]1CN([C@H](C)CO)C(=O)Cc2cc(NS(=O)(=O)c3cn(C)cn3)ccc2O[C@H]1CN(C)Cc1ccc2c(c1)OCO2
Cc1noc(C)c1S(=O)(=O)N(C)C[C@@H]1Oc2c(NS(=O)(=O)c3cn(C)cn3)cccc2C(=O)N([C@@H](C)CO)C[C@@H]1C
CN(C)CCNC(=O)c1ccccn1
